This note sets out measurements from ChEMBL document CHEMBL4888484, “Replenishing the malaria drug discovery pipeline: Screening and hit evaluation of the MMV Hit Generation Library 1 (HGL1) against asexual blood stage Plasmodium falciparum ,using a nano luciferase reporter read-out” (2022).

The campaign covered roughly 150,000 compounds. About 540 (0.36%) showed an effect of 50% or more. This is one part of the list.

The % Inhibition is the relative decrease from the control value, in per cent.

In this assay the test system is Plasmodium falciparum. Kind of assay: Primary screen in NF54 nanoGlo assay, in single point, at 2uM, 72h; a lower Z score goes with more inhibition. The class given is functional, Erythrocyte. The settings on record: timepoint 72 hour.
With `O=C1C2C(Cc3ccc(O)cc3)NC3(C(=O)Nc4ccccc43)C2C(=O)N1c1cccc(Cl)c1` (stereo not given), the “% Inhibition” value is given as -4% and the Z score is listed as 0.57.
The corresponding values for `C=CC[C@H](C)NC(=O)Nc1ccnn1C` are -3% and 0.45.
On the same counts, the results for `Cc1noc(C)c1CN(C)C(=O)Nc1ccc2c(cnn2C)c1` are -10% and 0.94.
On the same counts, the results for `CN(C)CCNC(=O)c1ccc2c(c1)nc1n2CCCC1` are 6% and -1.1.
Take `CC(=O)Nc1ccc(C)cc1-c1nc2ccccc2n(CC(=O)N2CCc3ccccc32)c1=O`: the “% Inhibition” value came to 4% and the Z score was -0.62.
On the same counts, the results for `COc1cc(-c2nc3cnccn3c2NC2CCCCC2)ccc1O` are -7% and 0.85.
The corresponding values for `CN(Cc1ccccc1)C(=O)C(C)(C)C` are 1% and -0.06.
On the same counts, the results for `O=C1NCCn2cnc(C(F)(F)F)c21` are -4% and 0.41.
For the molecule `Cc1cc(CN(C)Cc2cc(CN(C)C)cs2)on1`, the “% Inhibition” value is -2% and the Z score is recorded as 0.32.
The corresponding values for `Cn1nc(C(C)(C)C)c2[nH]c([C@H]3CCOC(C)(C)C3)nc21` are -2% and 0.31.
The corresponding values for `O=C(Nc1ccncc1)c1ccc2ccccc2n1` are 37% and -1.72.
On the same counts, the results for `COc1ncc(NS(=O)(=O)c2ccc(C)s2)cn1` are -11% and 2.12.
On to `O=C(CC1CCCN1)NC(c1ccc(F)cc1)C1CCCC1` (stereo not given), for which the “% Inhibition” value is on record as -4% and the Z score worked out at 0.66.
The corresponding values for `Cc1nc(C(=O)NCCc2c[nH]cn2)c(-c2ccc(F)cc2)s1` are -10% and 1.82.
The corresponding values for `c1ccc(-c2nsc(N3CCC(c4nn[nH]n4)CC3)n2)cc1` are -17% and 3.16.
The corresponding values for `CC(=O)N1CCOc2ccc(CCC(=O)NCCC(C)C)cc2C1` are -13% and 1.88.
As for `COc1nc(-c2cccc(C(=O)NCCCN3CCOCC3)c2)nn1C`, the “% Inhibition” value is recorded as -5% and the Z score came to 0.93.
The corresponding values for `CC(=O)Nc1ccc2nc(NCc3cc(C#N)n(C)c3C)sc2c1` are 4% and -0.45.
As for `CC(C)n1ncc(C(=O)N(CCc2ccccc2)c2ccccc2)c1N`, the “% Inhibition” value is given as -7% and the Z score stood at 1.27.
The corresponding values for `CC1CCN(C(=O)Nc2cnn(C(C)(C)C)c2)C(c2ccco2)C1` (stereo not given) are -10% and 1.7.
With `COc1nc2c(cc1CNC(=O)[C@@H]1CCCN1C)C(=O)N(C1CCCC1)C2`, the “% Inhibition” value is given as -10% and the Z score was found to be 1.46.
Take `O=C(NC[C@H]1CC(=O)N(C2CC2)C1)c1cccc2ccnn12`: the “% Inhibition” value is listed as -6% and the Z score was determined as 0.98.
The corresponding values for `Cc1ccc(-c2ccnc3c(C(=O)NCCc4ccccn4)cnn23)cc1C` are -16% and 2.38.
On the same counts, the results for `CNC(=O)[C@H](C)Oc1cccc(OC)c1` are -16% and 1.49.
With `COc1cccc(CN2CC=C(C(=O)N3CCN(c4ccccc4)CC3)CC2)c1`, the “% Inhibition” value is listed as -11% and the Z score is listed as 1.75.
The corresponding values for `Cc1noc(C2CN(C(=O)C3(O)CCCC3)C2)n1` are 1% and -0.25.
On the same counts, the results for `COc1ccc(C)cc1NC(=O)Cn1nc(N(C)C)c2ccccc2c1=O` are 2% and -0.33.
The corresponding values for `COc1ccc(CN(C(=O)c2scc(C)c2Cl)c2ccncc2)cc1` are 1% and -0.15.
Take `CC(C)CCN(Cc1c(-c2ccccc2)noc1N1CCCCC1)C(=O)c1ccccc1F`: the “% Inhibition” value was -15% and the Z score was 1.98.
On the same counts, the results for `CC[C@@](C)(CC(=O)O)NC(=O)CCc1ccsc1` are 2% and -0.23.
For `O=C(Nn1cnnc1)c1cccc2c(=O)c3ccccc3[nH]c12`, the “% Inhibition” value is listed as -9% and the Z score is 1.2.
On the same counts, the results for `OCCN1CCN(CCCc2cccc3ccccc23)CC1` are -5% and 0.73.
The corresponding values for `C[C@H](Nc1ncc(F)c(N(C)C)n1)c1ccc2c(c1)OCCO2` are -5% and 0.69.
The corresponding values for `Cc1nccn1CCC(=O)N1C[C@H]2CC[C@@H](C1)N(Cc1ccccn1)C2=O` are -12% and 2.27.
Regarding `O=C(NCc1ccc(-n2cncn2)nc1)c1ccccc1F`, the “% Inhibition” value is reported as -9% and the Z score was found to be 1.27.
With `Cc1nc(C2CC2)oc1C(=O)N1CCn2c(cc3ccc(Cl)cc32)C1`, the “% Inhibition” value was 14% and the Z score is reported as -1.78.
The corresponding values for `Cn1cnnc1[C@H](CO)Nc1ncc(C(F)(F)F)cc1Cl` are 1% and -0.08.
The corresponding values for `O=C(COc1ccc(Cl)cc1)Nc1ccc2nc3n(c(=O)c2c1)CCCC3` are 6% and -1.1.
On the same counts, the results for `Cc1c(-c2ccc(Cl)cc2)nnn1Cc1nnc(C(C)C)s1` are -11% and 2.
Regarding `CC(C)CC[C@@]1(C2CC2)NC(=O)N(Cc2noc(C3CC3)n2)C1=O`, the “% Inhibition” value was 5% and the Z score is recorded as -0.7.
The corresponding values for `CS(=O)(=O)[C@H]1CCN(C(=O)c2cnc3ccccc3n2)C1` are -17% and 2.93.
On the same counts, the results for `C[C@H](NC(=O)Nc1ccc2c(c1)OC1(CCCCC1)O2)c1ccon1` are 16% and -1.84.
The corresponding values for `Cc1cnc(C(C)NC(=O)NC(C)Cc2ccsc2)s1` (stereo not given) are 0% and -0.02.
For the molecule `COc1ccc(NC(=O)N2CCN(C3=Nc4ccccc4Oc4c(OC)cccc43)C[C@@H]2C)cc1`, the “% Inhibition” value came to 4% and the Z score is -0.73.
The corresponding values for `C[C@@H](c1ccncc1)N(C)Cc1cc(-c2ncccn2)ccc1OCC(=O)O` are -2% and 0.32.
The corresponding values for `O=C(Nc1ccc(F)cc1F)c1ccc(-c2noc(C3CCCC3)n2)cc1` are -6% and 0.6.
On the same counts, the results for `CCc1ccc(-c2nccn2CCN2CCOCC2)o1` are 0% and -0.04.
On to `COc1ccc(-c2cnc(C(=O)Nc3nc4ccccc4s3)o2)cc1`, for which the “% Inhibition” value is recorded as -7% and the Z score amounted to 0.93.
On the same counts, the results for `O=C1[C@@H]2[C@H](Cc3ccc(O)cc3)N[C@]3(C(=O)Nc4ccccc43)[C@@H]2C(=O)N1c1ccc(Cl)cc1` are 2% and -0.45.
Take `COCCn1c(C[C@H]2CCN(C(=O)c3cc(Cl)ccc3OC)C2)nc2cccnc21`: the “% Inhibition” value is recorded as -8% and the Z score stood at 0.74.
The corresponding values for `CCOc1ccc(N2C[C@@H](C(=O)NCc3ccc(-c4csc(C)n4)o3)CC2=O)cc1` are -9% and 1.3.
The corresponding values for `Cc1nc2n(c(=O)c1CCN1CCC(C(=O)c3ccc(F)cc3O)CC1)CCCC2` are -4% and 0.51.
Turning to `O[C@H](c1nc(C2CC2)n[nH]1)C(F)(F)F`, the “% Inhibition” value is -4% and the Z score came out at 0.65.
On the same counts, the results for `Cc1cc(C)n(CCCN(C)CCC(C)(C)O)n1` are -1% and 0.22.
With `CN(CCn1cccn1)Cc1ccc(C(=O)O)s1`, the “% Inhibition” value was 8% and the Z score is -0.94.
